The values that follow come from paper PMC5892938.

Some of the results follow. At the low end of the ranking the order means little.

For the experiment, the target named is GST-SBP-SLBP (stem-loop binding protein) (UniProt Q14493). As to the kind of experiment: targeted RNA Bind-n-Seq.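 Also: DESeq read counts versus GST-SBP nonspecific binding control pulldown.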 Conditions: RBNS binding buffer: 25 mM Tris pH 7.5, 150 mM KCl, 3 mM MgCl2, 0.1% Tween, 0.5 mg/mL BSA, 1 mM DTT; 27 nM protein, 750 pM RNA pool; temperature not stated; high values mean tight binding.
Regarding “GGUCACGUCUCAAUCAACUCACAAGAGGGGGGGAAAACCCCUUUGCCCUCGUCAUCAACAGCUCGCAGUCAAG”, the binding signal (log2 fold change) amounted to 0.00619.

Take “GGUCACGUCUCAAUCAACUCAGUUCCAGGAGUUUCCUCCUGCUUAUUCAACAGCUCGCAGUCAAG”: the binding signal (log2 fold change) was 0.0333.

With “GGUCACGUCUCAAUCAACUCAUUUCCAGGAGUUUACUCCUGCAUUCUCAACAGCUCGCAGUCAAG”, the binding signal (log2 fold change) came to 0.00418. For “GGUCACGUCUCAAUCAACUCAAUCCCCAGGGAAAACCCUGGUUUUUUCAACAGCUCGCAGUCAAG” the value was -0.148; for “GGUCACGUCUCAAUCAACUCAAUAGAGGGGGGGAAAACCCCUUUACCCUCCGUAUCAACAGCUCGCAGUCAAG”, -0.281.

For “GGUCACGUCUCAAUCAACUCUUCUCCAGGAGUUUCCUCCUGCAUAUUCAACAGCUCGCAGUCAAG”, the binding signal (log2 fold change) is 0.0457. As for “GGUCACGUCUCAAUCAACUCAAUUCCAGGAGUUUUCUCCUGUAUACUCAACAGCUCGCAGUCAAG”, the binding signal (log2 fold change) was determined as 0.0688. For “GGUCACGUCUCAAUCAACUCUAUUCCCAGGGAAAACCCUGGCUAACUCAACAGCUCGCAGUCAAG” the value was 0.0561. For “GGUCACGUCUCAAUCAACUCAUUCUCCAGGGAAAUCCCUGGCUAUUUCAACAGCUCGCAGUCAAG” the value was 0.0272; for “GGUCACGUCUCAAUCAACUCAUCUUCAGGAGUUUACUCCUGCUUUCUCAACAGCUCGCAGUCAAG”, 0.0445. Under “GGUCACGUCUCAAUCAACUCUUUUCCCAGGGAAAUCCCUGGUUUUUUCAACAGCUCGCAGUCAAG” stands -0.322; under “GGUCACGUCUCAAUCAACUCCAUGGAGGGGGGGAAAACCCCUUUACCCUCAAUAUCAACAGCUCGCAGUCAAG”, -0.0439. Turning to “GGUCACGUCUCAAUCAACUCACACGAGGGGGGGAAAACCCCUUUACCCUCACUUUCAACAGCUCGCAGUCAAG”, the binding signal (log2 fold change) was -0.371. For “GGUCACGUCUCAAUCAACUCAAUUUCAGGAGUUUGCUCCUGCUUUCUCAACAGCUCGCAGUCAAG” the value was -0.0532; for “GGUCACGUCUCAAUCAACUCAAUUUCCAGGGAAAACCCUGGCUAUCUCAACAGCUCGCAGUCAAG”, -0.264. Under “GGUCACGUCUCAAUCAACUCCUUAGAGGGGGGGAAAACCCCUUUGCCCUCAAAUUCAACAGCUCGCAGUCAAG” stands -0.151. On to “GGUCACGUCUCAAUCAACUCUAUCUCCAGGGAAACCCCUGGCUAUCUCAACAGCUCGCAGUCAAG”, for which the binding signal (log2 fold change) stood at 0.109.

For “GGUCACGUCUCAAUCAACUCACACGAGGGGGGGAAAACCCCUUUACCCUCUCUAUCAACAGCUCGCAGUCAAG”, the binding signal (log2 fold change) amounted to 0.553. For “GGUCACGUCUCAAUCAACUCAAUCCCAGGAGUUUUCUCCUGCAAUUUCAACAGCUCGCAGUCAAG” the value was 0.0379; for “GGUCACGUCUCAAUCAACUCAACUUCAGGAGUUUUCUCCUGCAAAUUCAACAGCUCGCAGUCAAG”, 0.0343; for “GGUCACGUCUCAAUCAACUCUAUUUCCAGGGAAAGCCCUGGCUUACUCAACAGCUCGCAGUCAAG”, 0.11. In the case of “GGUCACGUCUCAAUCAACUCUAUGUCCAGGGAAAACCCUGGUUUUCUCAACAGCUCGCAGUCAAG”, the binding signal (log2 fold change) was -0.204. For the sequence “GGUCACGUCUCAAUCAACUCUAUAGAGGGGGGGAAAACCCCUUUACCCUCCUAAUCAACAGCUCGCAGUCAAG”, the binding signal (log2 fold change) is -0.0808. “GGUCACGUCUCAAUCAACUCACUCGAGGGGGGGAAAACCCCUUUACCCUCAUUCUCAACAGCUCGCAGUCAAG”: the binding signal (log2 fold change) is 0.248. For “GGUCACGUCUCAAUCAACUCAAUCCCAGGAGUUUGCUCCUGCAAUUUCAACAGCUCGCAGUCAAG” the value was -0.0397.

Consider “GGUCACGUCUCAAUCAACUCAGUUUCCAGGGAAAACCCUGGCUUUUUCAACAGCUCGCAGUCAAG”, for which the binding signal (log2 fold change) is -0.195. Under “GGUCACGUCUCAAUCAACUCUUUCCCCAGGGAAAACCCUGGUAGUCUCAACAGCUCGCAGUCAAG” stands -0.0991. For “GGUCACGUCUCAAUCAACUCUAUAGAGGGGGGGAAAACCCCUUUGCCCUCACAUUCAACAGCUCGCAGUCAAG” the value was -0.274; for “GGUCACGUCUCAAUCAACUCAUUCCCAGGAGUUUCCUCCUGCUUUUUCAACAGCUCGCAGUCAAG”, 0.0387. For “GGUCACGUCUCAAUCAACUCUACUUCAGGAGUUUACUCCUGUUAAUUCAACAGCUCGCAGUCAAG” the value was 0.111; for “GGUCACGUCUCAAUCAACUCAUGUCCAGGAGUUUCCUCCUGUUUAUUCAACAGCUCGCAGUCAAG”, -0.108. Turning to “GGUCACGUCUCAAUCAACUCUAUUUCCAGGGAAAGCCCUGGCAAUUUCAACAGCUCGCAGUCAAG”, the binding signal (log2 fold change) is -0.1. Under “GGUCACGUCUCAAUCAACUCAGUUCCAGGAGUUUACUCCUGCUUUUUCAACAGCUCGCAGUCAAG” stands -0.248; under “GGUCACGUCUCAAUCAACUCAACUCCAGGAGUUUGCUCCUGCUAUCUCAACAGCUCGCAGUCAAG”, 0.16; under “GGUCACGUCUCAAUCAACUCUAUGUCAGGAGUUUUCUCCUGUUUACUCAACAGCUCGCAGUCAAG”, -0.0305. Under “GGUCACGUCUCAAUCAACUCAUUAGAGGGGGGGAAAACCCCUUUGCCCUCCAAUUCAACAGCUCGCAGUCAAG” stands 0.00165.

In the case of “GGUCACGUCUCAAUCAACUCUAUCCCCAGGGAAAUCCCUGGCUAUCUCAACAGCUCGCAGUCAAG”, the binding signal (log2 fold change) turned out to be 0.27. Under “GGUCACGUCUCAAUCAACUCUCCAGAGGGGGGGAAAACCCCUUUGCCCUCCAUUUCAACAGCUCGCAGUCAAG” stands 0.536; under “GGUCACGUCUCAAUCAACUCAUUUCCAGGAGUUUCCUCCUGCAUUUUCAACAGCUCGCAGUCAAG”, 0.00453; under “GGUCACGUCUCAAUCAACUCAUCCCCCAGGGAAAACCCUGGCAAACUCAACAGCUCGCAGUCAAG”, 0.288. Take “GGUCACGUCUCAAUCAACUCUUUUCCAGGAGUUUCCUCCUGUAUACUCAACAGCUCGCAGUCAAG”: the binding signal (log2 fold change) amounted to 0.0199. Under “GGUCACGUCUCAAUCAACUCUUCGUCCAGGGAAAUCCCUGGUAUUCUCAACAGCUCGCAGUCAAG” stands -0.114; under “GGUCACGUCUCAAUCAACUCAUUUUCAGGAGUUUGCUCCUGCUUACUCAACAGCUCGCAGUCAAG”, 0.0149. For the sequence “GGUCACGUCUCAAUCAACUCAUACGAGGGGGGGAAAACCCCUUUACCCUCACCUUCAACAGCUCGCAGUCAAG”, the binding signal (log2 fold change) was determined as 0.226. Under “GGUCACGUCUCAAUCAACUCAUCAGAGGGGGGGAAAACCCCUUUGCCCUCCAAUUCAACAGCUCGCAGUCAAG” stands 0.23; under “GGUCACGUCUCAAUCAACUCUAUCUCCAGGGAAAUCCCUGGCUUUUUCAACAGCUCGCAGUCAAG”, -0.198; under “GGUCACGUCUCAAUCAACUCAACUUCAGGAGUUUCCUCCUGCAUAUUCAACAGCUCGCAGUCAAG”, 0.0361.
